Measured values published in ChEMBL document CHEMBL4888484, “Replenishing the malaria drug discovery pipeline: Screening and hit evaluation of the MMV Hit Generation Library 1 (HGL1) against asexual blood stage Plasmodium falciparum ,using a nano luciferase reporter read-out” (2022).
Among all 150,000 compounds or so, about 540 (0.36%) showed an effect of 50% or more. The list shows a part of the results.

system: Plasmodium falciparum; experiment: Primary screen in NF54 nanoGlo assay, in single point, at 2uM, 72h; a lower Z score goes with more inhibition; assay type: functional, Erythrocyte; conditions: timepoint 72 hour

Row | SMILES | % Inhibition | Z score
1 | CC(C)Cc1cc(C(=O)NCc2csc(N)n2)nc(=O)[nH]1 | 17% | -2.16
2 | CCOCC(=O)NCc1ccc([C@H](O)c2ccccc2)s1 | -13% | 1.69
3 | CCOc1cccc([C@@H]2CC(c3ccc(C)cc3)=NC3(CCN(CC)CC3)N2)c1O | -17% | 1.93
4 | C=CCn1ccnc1C(=O)NCCc1cscn1 | -10% | 1.3
5 | CC1(C)CCc2nnc(C(=O)Nc3ccccn3)n2C1 | 10% | -1.3
6 | O=C(c1[nH]nc2c1CCC2)N1CC(n2cccn2)C1 | -4% | 0.89
7 | CCCN(CCN1CCCC1)C(=O)c1ccnc(N2CCO[C@@H](C)C2)c1 | -5% | 0.74
8 | CC1(C)CCN(CCNC(=O)[C@H]2CC[C@H](Nc3cnccn3)CC2)C1 | -6% | 0.88
9 | CCOc1ccc(S(=O)(=O)Nc2ccc(OC)c(N3CCCC3=O)c2)cc1 | -7% | 1.13
10 | Cc1cc(C(=O)N2CCC(Oc3ncccc3F)CC2)c2nccc(C)c2c1 | -3% | 0.34
11 | CN1CCN(Cc2ccc(-c3cccc4cccnc34)nc2)CC1 | -12% | 2.1
12 | O=C(CS(=O)(=O)C1CCCC1)N(CCO)CC1CC1 | -6% | 0.59
13 | O=S(=O)(NC[C@H]1COC2(CCCC2)O1)c1ccc(Cl)s1 | -14% | 2.71
14 | CCc1cnc(C)nc1N1C[C@H]2CC=CC[C@H]2C1 | -3% | 0.41
15 | O=C(CN1N=C(C(=O)Nc2ccccc2)CCC1=O)Nc1ccc(OC(F)(F)F)cc1 | 38% | -4.94
16 | C1=C(CCNCc2ccccc2)c2ccccc2C1 | -10% | 1.25
17 | O=C(NCc1nc(-c2cccs2)n[nH]1)c1cc[nH]n1 | -13% | 2.57
18 | NCc1ccnc(OC2CCC3(CC2)OCCO3)c1 | -4% | 0.58
19 | CC(C)=CCCN1CCC(c2cc(N3CCOCC3)nc(C)n2)CC1 | 1% | -0.12
20 | CN1CCC[C@H](C(=O)N[C@H]2CC[C@H](Oc3ncccn3)CC2)C1 | 13% | -1.46
21 | O=C(c1ccccc1F)N1C[C@@H]2CN(C3CCCC3)C[C@]2(C(=O)O)C1 | -2% | 0.3
22 | COc1ccc(Oc2nccc(-c3ccc(F)cc3)c2C#N)cc1 | 38% | -1.49

Row | SMILES | % Inhibition | Z score
23 | COc1ccc(C(=O)NCc2ccc3c(c2)CCN3C(=O)c2ccncc2)cc1OC | -15% | 1.35
24 | CCn1c(CC2CCNCC2)nn(Cc2ccc(C)c(F)c2F)c1=O | -3% | 0.41
25 | CC(=O)N1CCc2ccc(OCc3nc(C(=O)NC4CC4)cs3)cc2[C@@H]1c1cccc(F)c1 | -23% | 3.04
26 | COC(=O)c1ccc(N2CCN(C(=O)CCn3cnnc3)CC2)cc1 | -11% | 1.11
27 | O=S(=O)(Cc1ccc(OC(F)(F)F)cc1)Nc1cnc2c(c1)COCC2 | -11% | 1.24
28 | CC1(C)CO[C@H](c2cccc(F)c2)CN1S(=O)(=O)N1CCCCCC1 | 14% | -1.77
29 | O=S(=O)(Cc1ccccc1)N1CC[C@H](Oc2ncc(Br)cn2)C1 | -5% | 0.81
30 | O=C(c1ccc(NC2CCCC2)nn1)N1CCc2ccccc21 | 1% | -0.16
31 | COCc1ncc(C)n1CCNC(=O)c1ccncc1 | 2% | -0.25
32 | CCCn1c(=O)c2sc(N3CCCCC3)nc2n(CC(=O)Nc2ccc(C(F)(F)F)cc2)c1=O | -25% | 2.2
33 | O=C(Nc1ccccc1Cc1ccccc1)N1C[C@H]2CC[C@@H](C1)[C@H]2O | -6% | 0.85
34 | Cc1ncc(CN(C)Cn2nc3ccccn3c2=O)s1 | 27% | -3.09
35 | CN(Cc1cc(C(N)=O)cs1)[C@H]1CCCN(Cc2ccccc2)C1 | -2% | 0.49
36 | CCOc1ccc(CC(=O)N2CC(=O)N(Cc3ccccc3)C3(CCCCC3)C2)cc1 | -8% | 1.16
37 | CC1(O)CC(C(=O)N2CCC(F)(F)C2)C1 (configuration not stated) | -12% | 1.67
38 | O=C(NC1CCn2ccnc21)N1CCC[C@H]1COc1ccc(F)cc1 (some centres not stated) | -10% | 1.96
39 | CCCc1nc(N2CCN(C(=O)c3ccc(Cl)cc3)CC2)c2c(-c3cccc(C(F)(F)F)c3)noc2n1 | -13% | 1.24
40 | CCC1CN(C(=O)C(C)C)CCC1NCC=Cc1ccccc1 (configuration not stated) | -10% | 1.31
41 | CC(NC1CC(C)(C)CCc2ccccc21)c1nnnn1C (configuration not stated) | -7% | 1.08
42 | COc1ccc([C@@H](C)C(=O)N(C)c2ccc(Br)cn2)cc1 | -11% | 1.45
43 | c1ccc2c(c1)OCCN2Cc1cnc2ncccn12 | -14% | 1.44
44 | COc1ccc(CNC(=O)c2nc(-c3ccc4c(c3)OCO4)no2)cc1OC | -7% | 0.95

Row | SMILES | % Inhibition | Z score
45 | CC(C)Cc1ccc(S(=O)(=O)N2C[C@@H](F)C[C@H]2C(=O)N2CCc3ccccc32)cc1 | 4% | -0.51
46 | CC(C)c1nnnn1CC(=O)N[C@](C)(c1ccccc1)C(F)(F)F | -6% | 1.08
47 | COc1c(F)c(F)c(C(=O)O)c(N(C)c2ccccc2)c1F | -1% | 0.24
48 | Cc1nsc(NC(=O)[C@@H]2CCCN2c2ncnc3sccc23)c1C#N | 1% | -0.21
49 | Nc1nc(CNC(=O)C2(N3CCOCC3)CCCCC2)n[nH]1 | 17% | -2.45
50 | Brc1ccccc1CNCc1ccc2nccnc2c1 | -6% | 0.79
51 | Clc1ccc(OCc2cccs2)c(CNCc2cccnc2)c1 | -8% | 1.12
52 | Cc1cc(=O)[nH]c(NCCNC(=O)c2cnc(C(C)(C)C)nc2O)n1 | -14% | 2.84
53 | CC(C)NC(=O)[C@H](C)ONC(=O)C1CCCC1 | -19% | 2.65
54 | CC(C)COc1cncc(N2CCN(C3CC3)C(=O)C2)n1 | -5% | 0.86
55 | CC12CN(C(=O)NC3CCCCC3)C3(C(=O)OCc4ccccc4)CC1CCC23C (configuration not stated) | 1% | -0.1
56 | Cn1c(=O)c2c(c(-c3ccccc3)cn2C)n(CC(=O)Nc2cc(Cl)cc(Cl)c2)c1=O | 46% | -6.18
57 | CC(C)(C)c1csc(C=Cc2csc(-c3ccccn3)n2)n1 | 3% | -0.38
58 | CCCCN1CCN(C(=O)c2nc(-c3ccnc(N4CCCC4)c3)no2)CC1 | -12% | 2.12
59 | O=C1[C@@H](N2CCOCC2)CCCN1Cc1ccccc1C(F)(F)F | 0% | -0.05
60 | Cc1cc(C(=O)N2CCC(CN3CCCCC3=O)CC2)[nH]n1 | 17% | -2.2
61 | O=C(NCC1CCCC1)NCC1CCCC1O (configuration not stated) | -3% | 0.49
62 | CCn1cc(CN2CCC3(CCCC3)C2)cc1C#N | -11% | 1.04
63 | COC[C@@H]1CN(Cc2ccc3cc[nH]c3c2)C[C@H]1c1nc(C)no1 | -12% | 1.92
64 | O=C(NCc1ccncc1OCC(F)(F)F)N1CCC(CO)CC1 | -6% | 0.99
65 | C[C@@H]1OCCO[C@@H]1C(=O)Nc1ccn(-c2ccc(Cl)cc2)n1 | -11% | 1.74
66 | Cc1ccc(F)cc1NC(=O)c1coc(C2CCOCC2)n1 | 22% | -2.58

Row | SMILES | % Inhibition | Z score
67 | COc1cc(C(=O)NCC[C@H](C)N2CCN(C)CC2)ccn1 | -10% | 1.7
68 | CCCCC(=O)N1C[C@H](C)OCC1(C)C | -11% | 1.47
69 | CO[C@@H]1CN(Cc2c3c(nn2C)CCCC3)CCO1 | -4% | 0.58
70 | COc1cccc(Cn2ccc(-c3cccc(-c4nccnc4C)c3)n2)c1 | 13% | -1.75
71 | C[C@@H](c1ccncc1)N(C)Cc1cncs1 | -2% | 0.25
72 | CC(C)C(NC(=O)N(C)Cc1ncon1)C(C)C | -12% | 1.63
73 | CC(C)(C)OC(=O)N1CCC[C@H](Oc2ccncn2)C1 | 7% | -0.91
74 | O=C(Cc1ccsc1)NCc1cncc(-c2cccs2)c1 | -8% | 1.66
75 | CC(C)[C@H](CN(Cc1ccc(Cl)c(Cl)c1)S(=O)(=O)N(C)CCC#N)N(C)C | 1% | -0.15
76 | Cn1cc(-c2nc([C@@H]3CCCCCN3C(=O)c3ccccn3)no2)cn1 | -3% | 0.37
77 | CCN1C(=O)CCc2cc(NCc3ccnn3CC)ccc21 | 1% | -0.16
78 | CCOCC1CCN(C(=O)C2CCCCN2C(=O)c2ccco2)C1 (configuration not stated) | -8% | 1.41
79 | Cn1ccc(NC(=O)Nc2ccc(OCCN3CCCCC3)cc2)n1 | -2% | 0.23
80 | O=C1c2ccccc2[C@H](O)N1Cc1c[nH]c2ccccc12 | 5% | -0.8
81 | Cn1cc(S(=O)(=O)Oc2cccc(F)c2C#N)cn1 | 10% | -1.05
82 | CCN1C[C@@H](NC(=O)N2Cc3ccc(Cl)cc3C2)CC1=O | -8% | 1.41
83 | CN(C(=O)NCCC(=O)NC1CCCC1)c1ccccn1 | -2% | 0.28
84 | CC1CC(C)CN(CCN(CCC(=O)N2CCNCC2)S(=O)(=O)c2ccc(F)c(F)c2)C1 (configuration not stated) | 6% | -0.98
85 | O=C1Nc2cc(C(=O)N3CCN(C(=O)c4ccco4)CC3)ccc2N2CCCC[C@@H]12 | 5% | -0.64
86 | CC(C)(C)c1nnc(CN2CC[C@H](c3ccccc3)C2)o1 | -13% | 1.85
